# No constants are given. Whether binding was seen depends on the method and setting. For some of these results: In cells and extracts the contact can be indirect. Some binding calls cover weakened binding; strength is not graded here. Where a sequence is shown, tags or fusion partners need not be part of it.
# Sequences of proteins named here, by UniProt entry; tags and fusion partners are left off. A change or cut given only in a name is not applied to a line headed by its entry. A line that says so, or that is headed by a name, gives the form on record, which may keep a tag or linker. Residues count along the entry.
# UniProt Q9FPR3: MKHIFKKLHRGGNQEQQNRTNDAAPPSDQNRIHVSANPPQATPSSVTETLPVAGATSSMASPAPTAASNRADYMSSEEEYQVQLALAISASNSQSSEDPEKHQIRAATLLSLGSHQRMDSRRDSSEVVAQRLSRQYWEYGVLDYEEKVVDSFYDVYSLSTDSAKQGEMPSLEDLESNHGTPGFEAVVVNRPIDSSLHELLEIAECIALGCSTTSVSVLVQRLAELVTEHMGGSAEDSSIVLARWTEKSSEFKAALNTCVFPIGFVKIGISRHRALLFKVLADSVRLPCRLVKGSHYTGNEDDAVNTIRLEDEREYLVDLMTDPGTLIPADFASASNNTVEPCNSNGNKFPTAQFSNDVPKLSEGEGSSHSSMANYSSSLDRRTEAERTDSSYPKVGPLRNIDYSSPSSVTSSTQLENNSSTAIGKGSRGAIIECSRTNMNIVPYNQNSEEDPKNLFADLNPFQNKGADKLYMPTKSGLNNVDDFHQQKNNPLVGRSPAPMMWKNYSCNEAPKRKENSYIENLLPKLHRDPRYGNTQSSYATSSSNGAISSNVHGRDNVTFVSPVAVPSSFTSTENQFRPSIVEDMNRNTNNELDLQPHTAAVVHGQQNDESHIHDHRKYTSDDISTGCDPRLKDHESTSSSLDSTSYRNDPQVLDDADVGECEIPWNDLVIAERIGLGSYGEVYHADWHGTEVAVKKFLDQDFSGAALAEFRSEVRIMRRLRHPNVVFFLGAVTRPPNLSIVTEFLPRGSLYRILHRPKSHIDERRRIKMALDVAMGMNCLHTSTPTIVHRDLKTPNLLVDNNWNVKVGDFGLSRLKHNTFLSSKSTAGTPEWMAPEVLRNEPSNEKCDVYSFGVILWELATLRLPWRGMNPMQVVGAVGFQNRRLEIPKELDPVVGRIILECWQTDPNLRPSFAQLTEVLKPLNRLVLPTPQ
# EDR1 N-terminal domain fused to the Gal4 DNA binding domain: residues 1-657 of Q9FPR3
# UniProt Q39026: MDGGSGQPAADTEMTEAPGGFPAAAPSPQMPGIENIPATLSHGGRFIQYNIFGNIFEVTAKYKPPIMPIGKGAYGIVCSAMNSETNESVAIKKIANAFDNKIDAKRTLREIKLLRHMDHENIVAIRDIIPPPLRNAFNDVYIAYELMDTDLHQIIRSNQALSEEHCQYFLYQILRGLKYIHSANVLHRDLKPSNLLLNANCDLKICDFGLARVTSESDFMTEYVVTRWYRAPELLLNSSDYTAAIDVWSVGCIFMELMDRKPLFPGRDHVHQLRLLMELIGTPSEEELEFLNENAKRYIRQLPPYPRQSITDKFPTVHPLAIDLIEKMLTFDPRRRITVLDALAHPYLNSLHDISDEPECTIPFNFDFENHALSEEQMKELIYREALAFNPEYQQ
# T1: HA-MKK5 in transgenic Arabidopsis (Arabidopsis thaliana) (UniProt Q8RXG3)
# T1 sequence: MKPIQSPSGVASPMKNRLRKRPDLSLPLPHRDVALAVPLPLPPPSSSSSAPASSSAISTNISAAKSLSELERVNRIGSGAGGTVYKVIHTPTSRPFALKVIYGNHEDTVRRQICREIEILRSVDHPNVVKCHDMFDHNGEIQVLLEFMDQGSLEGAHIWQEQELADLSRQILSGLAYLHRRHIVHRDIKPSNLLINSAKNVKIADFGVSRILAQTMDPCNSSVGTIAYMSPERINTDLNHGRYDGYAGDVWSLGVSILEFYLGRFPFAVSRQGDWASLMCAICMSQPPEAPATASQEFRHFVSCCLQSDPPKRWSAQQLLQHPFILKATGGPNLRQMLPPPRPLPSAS
# T2: HA tagged MKK4 expressed in N. benthamiana (Arabidopsis thaliana) (UniProt O80397)
# T2 sequence: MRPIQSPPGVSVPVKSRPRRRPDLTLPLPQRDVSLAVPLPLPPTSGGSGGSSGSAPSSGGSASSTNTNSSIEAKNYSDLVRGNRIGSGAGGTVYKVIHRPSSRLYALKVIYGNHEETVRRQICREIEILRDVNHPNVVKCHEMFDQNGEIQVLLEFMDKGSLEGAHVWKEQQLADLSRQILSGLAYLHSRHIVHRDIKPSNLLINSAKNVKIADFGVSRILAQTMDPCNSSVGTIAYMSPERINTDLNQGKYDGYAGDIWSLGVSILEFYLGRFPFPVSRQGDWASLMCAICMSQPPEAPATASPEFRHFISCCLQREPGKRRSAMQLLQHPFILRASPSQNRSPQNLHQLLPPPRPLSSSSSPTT
# T3: HA tagged MKK5 expressed in N. benthamiana (Arabidopsis thaliana) (UniProt Q8RXG3)
# T3 sequence: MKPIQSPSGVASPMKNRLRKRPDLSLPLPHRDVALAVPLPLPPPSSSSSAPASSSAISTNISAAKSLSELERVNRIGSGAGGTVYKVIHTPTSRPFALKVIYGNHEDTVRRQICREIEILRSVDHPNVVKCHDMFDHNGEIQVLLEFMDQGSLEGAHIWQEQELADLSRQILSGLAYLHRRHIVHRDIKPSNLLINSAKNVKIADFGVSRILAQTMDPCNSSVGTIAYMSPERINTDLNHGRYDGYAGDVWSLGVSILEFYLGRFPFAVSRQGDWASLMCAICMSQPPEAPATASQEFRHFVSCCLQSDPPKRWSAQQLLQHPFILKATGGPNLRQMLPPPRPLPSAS
# How the values were obtained:
# [1] = target: T1, HA-MKK5 in transgenic Arabidopsis (Arabidopsis thaliana); test: co-IP; extracts of EDR1-Flag/HA-MKK5 double transgenic Arabidopsis plants (EDR1-Flag plants as control); immunoprecipitation by HA antibody and Protein G, immunoblot with anti-Flag or anti-HA
# [2] = target: T2, HA tagged MKK4 expressed in N. benthamiana (Arabidopsis thaliana); test: co-IP; transient co-expression in N. benthamiana, proteins extracted after 48 h; immunoprecipitation by anti-HA antibody and Protein G, immunoblot with anti-Myc and anti-HA
# [3] = target: T3, HA tagged MKK5 expressed in N. benthamiana (Arabidopsis thaliana); test: as above
# [4] = target: EDR1 full length fused to the Gal4 DNA binding domain (Arabidopsis thaliana) (UniProt Q9FPR3); test: two-hybrid; EDR1 constructs on the Gal4 DNA binding domain (pGBKT-7), kinases on the Gal4 transactivation domain (pGADT-7), cotransformed into yeast AH109; growth on SD lacking Ade, His, Leu and Trp, 2 days
# [5] = target: EDR1 N-terminal domain fused to the Gal4 DNA binding domain (Arabidopsis thaliana) (UniProt Q9FPR3); test: as above
# [6] = target: YFP^YN-fused EDR1 (Arabidopsis thaliana) (UniProt Q9FPR3); test: split reporter; BiFC: YFP^YN and YFP^YC fusions co-expressed in N. benthamiana by Agrobacterium; YFP fluorescence by confocal microscopy after 48 hours
molecule,measurement,setting,value
EDR1-Flag in transgenic Arabidopsis (from UniProt Q9FPR3 1-933),binding,[1],binds
EDR1 N-terminal domain expressed in N. benthamiana (from UniProt Q9FPR3 1-657) (domain or fragment),binding,[2],binds
same,binding,[3],binds
MPK6 fused to the Gal4 transactivation domain (from UniProt Q39026 1-395),binding,[4],no binding
"MKK4 fused to the Gal4 transactivation domain (protein, UniProt O80397 1-366) MRPIQSPPGVSVPVKSRPRRRPDLTLPLPQRDVSLAVPLPLPPTSGGSGGSSGSAPSSGGSASSTNTNSSIEAKNYSDLVRGNRIGSGAGGTVYKVIHRPSSRLYALKVIYGNHEETVRRQICREIEILRDVNHPNVVKCHEMFDQNGEIQVLLEFMDKGSLEGAHVWKEQQLADLSRQILSGLAYLHSRHIVHRDIKPSNLLINSAKNVKIADFGVSRILAQTMDPCNSSVGTIAYMSPERINTDLNQGKYDGYAGDIWSLGVSILEFYLGRFPFPVSRQGDWASLMCAICMSQPPEAPATASPEFRHFISCCLQREPGKRRSAMQLLQHPFILRASPSQNRSPQNLHQLLPPPRPLSSSSSPTT",binding,[5],binds
same,binding,[4],binds
"MKK5 fused to the Gal4 transactivation domain (protein, UniProt Q8RXG3 1-348) MKPIQSPSGVASPMKNRLRKRPDLSLPLPHRDVALAVPLPLPPPSSSSSAPASSSAISTNISAAKSLSELERVNRIGSGAGGTVYKVIHTPTSRPFALKVIYGNHEDTVRRQICREIEILRSVDHPNVVKCHDMFDHNGEIQVLLEFMDQGSLEGAHIWQEQELADLSRQILSGLAYLHRRHIVHRDIKPSNLLINSAKNVKIADFGVSRILAQTMDPCNSSVGTIAYMSPERINTDLNHGRYDGYAGDVWSLGVSILEFYLGRFPFAVSRQGDWASLMCAICMSQPPEAPATASQEFRHFVSCCLQSDPPKRWSAQQLLQHPFILKATGGPNLRQMLPPPRPLPSAS",binding,[5],binds
same,binding,[4],binds
"YFP^YC-fused MKK4 (protein, UniProt O80397 1-366) MRPIQSPPGVSVPVKSRPRRRPDLTLPLPQRDVSLAVPLPLPPTSGGSGGSSGSAPSSGGSASSTNTNSSIEAKNYSDLVRGNRIGSGAGGTVYKVIHRPSSRLYALKVIYGNHEETVRRQICREIEILRDVNHPNVVKCHEMFDQNGEIQVLLEFMDKGSLEGAHVWKEQQLADLSRQILSGLAYLHSRHIVHRDIKPSNLLINSAKNVKIADFGVSRILAQTMDPCNSSVGTIAYMSPERINTDLNQGKYDGYAGDIWSLGVSILEFYLGRFPFPVSRQGDWASLMCAICMSQPPEAPATASPEFRHFISCCLQREPGKRRSAMQLLQHPFILRASPSQNRSPQNLHQLLPPPRPLSSSSSPTT",binding,[6],binds
"YFP^YC-fused MKK5 (protein, UniProt Q8RXG3 1-348) MKPIQSPSGVASPMKNRLRKRPDLSLPLPHRDVALAVPLPLPPPSSSSSAPASSSAISTNISAAKSLSELERVNRIGSGAGGTVYKVIHTPTSRPFALKVIYGNHEDTVRRQICREIEILRSVDHPNVVKCHDMFDHNGEIQVLLEFMDQGSLEGAHIWQEQELADLSRQILSGLAYLHRRHIVHRDIKPSNLLINSAKNVKIADFGVSRILAQTMDPCNSSVGTIAYMSPERINTDLNHGRYDGYAGDVWSLGVSILEFYLGRFPFAVSRQGDWASLMCAICMSQPPEAPATASQEFRHFVSCCLQSDPPKRWSAQQLLQHPFILKATGGPNLRQMLPPPRPLPSAS",binding,[6],binds
"MPK3 fused to the Gal4 transactivation domain (protein, UniProt Q39023 1-370) MNTGGGQYTDFPAVETHGGQFISYDIFGSLFEITSKYRPPIIPIGRGAYGIVCSVLDTETNELVAMKKIANAFDNHMDAKRTLREIKLLRHLDHENIIAIRDVVPPPLRRQFSDVYISTELMDTDLHQIIRSNQSLSEEHCQYFLYQLLRGLKYIHSANIIHRDLKPSNLLLNANCDLKICDFGLARPTSENDFMTEYVVTRWYRAPELLLNSSDYTAAIDVWSVGCIFMELMNRKPLFPGKDHVHQMRLLTELLGTPTESDLGFTHNEDAKRYIRQLPNFPRQPLAKLFSHVNPMAIDLVDRMLTFDPNRRITVEQALNHQYLAKLHDPNDEPICQKPFSFEFEQQPLDEEQIKEMIYQEAIALNPTYG",binding,[4],no binding
"MKK1 fused to the Gal4 transactivation domain (protein, UniProt Q94A06 1-354) MNRGSLCPNPICLPPLEQSISKFLTQSGTFKDGDLRVNKDGIQTVSLSEPGAPPPIEPLDNQLSLADLEVIKVIGKGSSGNVQLVKHKLTQQFFALKVIQLNTEESTCRAISQELRINLSSQCPYLVSCYQSFYHNGLVSIILEFMDGGSLADLLKKVGKVPENMLSAICKRVLRGLCYIHHERRIIHRDLKPSNLLINHRGEVKITDFGVSKILTSTSSLANSFVGTYPYMSPERISGSLYSNKSDIWSLGLVLLECATGKFPYTPPEHKKGWSSVYELVDAIVENPPPCAPSNLFSPEFCSFISQCVQKDPRDRKSAKELLEHKFVKMFEDSDTNLSAYFTDAGSLIPPLAN",binding,[4],no binding
"MKK2 fused to the Gal4 transactivation domain (protein, UniProt Q9S7U9 1-363) MKKGGFSNNLKLAIPVAGEQSITKFLTQSGTFKDGDLRVNKDGVRIISQLEPEVLSPIKPADDQLSLSDLDMVKVIGKGSSGVVQLVQHKWTGQFFALKVIQLNIDEAIRKAIAQELKINQSSQCPNLVTSYQSFYDNGAISLILEYMDGGSLADFLKSVKAIPDSYLSAIFRQVLQGLIYLHHDRHIIHRDLKPSNLLINHRGEVKITDFGVSTVMTNTAGLANTFVGTYNYMSPERIVGNKYGNKSDIWSLGLVVLECATGKFPYAPPNQEETWTSVFELMEAIVDQPPPALPSGNFSPELSSFISTCLQKDPNSRSSAKELMEHPFLNKYDYSGINLASYFTDAGSPLATLGNLSGTFSV",binding,[4],no binding

# Reference: publication PMC4022593
